Experimental data: article PMC7994375 (2021)

B1: Human Melanocortin-4 Receptor (MC4R) WT, NanoBiT constructs (MC4R WT-LgBiT; MC4R WT-SmBiT) [human] / Human Gαs-C-SmBiT [human] (parent complex)
chain 1: MVNSTHRGMHTSLHLWNRSSYRLHSNASESLGKGYSDGGCYEQLFVSPEVFVTLGVISLLENILVIVAIAKNKNLHSPMYFFICSLAVADMLVSVSNGSETIVITLLNSTDTDAQSFTVNIDNVIDSVICSSLLASICSLLSIAVDRYFTIFYALQYHNIMTVKRVGIIISCIWAACTVSGILFIIYSDSSAVIICLITMFFTMLALMASLYVHMFLMARLHIKRIAVLPGTGAIRQGANMKGAITLTILIGVFVVCWAPFFLHLIFYISCPQNPYCVCFMSHFNLYLILIMCNSIIDPLIYALRSQELRKTFKEIICCYPLGGLCDLSSRY
chain 2: MGCLGNSKTEDQRNEEKAQREANKKIEKQLQKDKQVYRATHRLLLLGAGESGKSTIVKQMRILHVNGFNGEGGEEDPQAARSNSDGEKATKVQDIKNNLKEAIETIVAAMSNLVPPVELANPENQFRVDYILSVMNVPDFDFPPEFYEHAKALWEDEGVRACYERSNEYQLIDCAQYFLDKIDVIKQADYVPSDQDLLRCRVLTSGIFETKFQVDKVNFHMFDVGGQRDERRKWIQCFNDVTAIIFVVASSSYNMVIREDNQTNRLQEALNLFKSIWNNRWLRTISVILFLNKQDLLAEKVLAGKSKIEDYFPEFARYTTPEDATPEPGEDPRVTRAKYFIRDEFLRISTASGDGRHYCYPHFTCAVDTENIRRVFNDCRDIIQRMHLRQYELL

Variants of: B1
Test: NanoBiT enzyme complementation assay; read off a plot

screen value | Variant
~-0.85 loge(mutant/WT) | chain 1 C326R
~-0.5 loge(mutant/WT) | chain 1 T11A
~0.65 loge(mutant/WT) | chain 1 S191T
~-0.5 loge(mutant/WT) | chain 1 T112M
~-0.1 loge(mutant/WT) | chain 1 R305S
~0.35 loge(mutant/WT) | chain 1 I251L
~0.35 loge(mutant/WT) | chain 1 T53I
~-0.05 loge(mutant/WT) | chain 1 G238D
~-0.7 loge(mutant/WT) | chain 1 S295P
~-0.8 loge(mutant/WT) | chain 1 T232S
~0.1 loge(mutant/WT) | chain 1 L304F
~-0.25 loge(mutant/WT) | chain 1 S30F
~-1.5 loge(mutant/WT) | chain 1 R236C
~0.85 loge(mutant/WT) | chain 1 V103I
~-0.45 loge(mutant/WT) | chain 1 G231S
~-0.2 loge(mutant/WT) | chain 1 G34A
~-0.65 loge(mutant/WT) | chain 1 M200V
~-0.9 loge(mutant/WT) | chain 1 L325F
~0.95 loge(mutant/WT) | chain 1 N240S
